Reference: PubChem BioAssay AID1347055 (National Center for Advancing Translational Sciences (NCATS), 2019)
About 120 (0.22%) of roughly 54,000 compounds were called active. This list was built around the results that the source calls inconclusive (neither active nor inactive); the mix of calls is not that of the screen. The call rests on the fitted dose curve; in most records, active means well fitted inhibition curve with a large enough effect; inconclusive means small, poorly fitted or top-dose-only effect, or effect the other way; inactive means flat fitted curve, though single readings scatter. No potency is given beside an inconclusive call; the fits are too rough.

Target: Fumarate hydratase, mitochondrial (Homo sapiens) (UniProt P07954)
UniProt P07954, sequence (P07954 whole entry, looked up): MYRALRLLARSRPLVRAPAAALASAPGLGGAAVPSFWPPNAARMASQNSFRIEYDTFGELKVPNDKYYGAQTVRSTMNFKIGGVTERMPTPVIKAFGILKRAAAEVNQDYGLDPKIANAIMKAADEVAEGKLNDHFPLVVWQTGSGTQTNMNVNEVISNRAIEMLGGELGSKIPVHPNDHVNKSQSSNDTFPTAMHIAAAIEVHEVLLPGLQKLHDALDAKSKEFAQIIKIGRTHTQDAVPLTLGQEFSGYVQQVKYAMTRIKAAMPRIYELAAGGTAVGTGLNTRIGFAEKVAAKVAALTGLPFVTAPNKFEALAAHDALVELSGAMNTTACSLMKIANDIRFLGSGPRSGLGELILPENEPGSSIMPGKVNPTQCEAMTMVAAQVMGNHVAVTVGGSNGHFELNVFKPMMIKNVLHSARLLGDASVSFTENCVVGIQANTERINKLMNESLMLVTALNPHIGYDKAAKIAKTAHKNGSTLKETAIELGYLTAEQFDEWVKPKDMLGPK
Assay: Identification of activators of human fumarate hydratase by quantitative high-throughput screening; further: the screen sought activators but most active calls are inhibition curves; nearly all actives have a fitted effect of over 45% in size
Settings: FH coupled MDH/diaphorase resazurin fluorescence, 15 min; activity change, negative = inhibition: at 79.9 µM (top of the series)
From the text: Fumarate hydratase (FH) is a metabolic enzyme that is part of the Krebs-cycle, and reversibly catalyzes the hydration of fumarate to malate. Mutations of the FH gene have been associated with fumarate hydratase deficiency (FHD), hereditary leiomyomatosis, renal cell cancer (HLRCC), and other diseases. Currently there are no high-quality small molecule probes for studying human fumarate hydratase. To address this, we developed a quantitative high throughput screening (qHTS) FH assay and screened a total of 57,037 compounds in dose-response. While no inhibitors of FH were confirmed, a series of phenyl-pyrrolo-pyrimidine-diones (12 compounds) were identified as activators of human fumarate hydratase. […] The binding of two compounds from the series to human fumarate hydratase was confirmed by microscale thermophoresis. The low hit rate in this screening campaign confirmed that FH is a "tough target" to modulate, and the small molecule activators of human fumarate hydratase reported here may serve as a starting point for further optimization and development into cellular probes of human FH and potential drug candidates.
For primary high-throughput screen, 3 ul of FH solution (containing 13.33nM human fumarate hydratase, 13.33IU/ml malic dehydrogenase, 0.2mM NAD, 0.067mg/ml diaphorase and 0.067mM resazurin in the assay buffer (50 mM Tris pH 8.0, 5 mM MgCl2, 0.01% Brij 3) was dispensed into each well in a black solid bottom 1536-well assay plate (Greiner Bio-One) using a BioRAPTR FRD dispenser (Beckman Coulter, Brea, CA). A 1536-well pintool dispenser outfitted with 20 nl pins (Wako Automation, San Diego, CA) was used to transfer 20 nL of DMSO-solubilized compound (Cherrypick plates) to each 1536-well assay plate. Each compound was screened at five concentrations: 15 nM, 151 nM, 1.5 uM, 15.4 uM, 76.9 uM. Following compound transfer, plates were incubated in room temperature for 10 minutes. 1 uL of substrate solution containing fumaric acid (160 uM) was dispensed via BioRAPTR FRD to initiate the reaction. Plates were immediately transferred to a ViewLux microplate imager (PerkinElmer, Waltham, MA), and any resulting resorufin fluorescence was measured (exitation/emission, 525/598 nm) at 0 and 15 minutes. The exposure time is 1 second. Fluorescence from each well was normalized using enzyme-free and DMSO-treated control wells on each plate, and changes in fluorescence (delta RFU) were calculated using the difference in fluorescent signal for each well at 15 minutes versus 0 minutes.
On the % scale 0 is the no-effect control and ±100 the full control effect; potency means the concentration at half of the fitted maximal effect; tags describe the fitted curve by direction and shape.

Compound	Potency	activity change, negative = inhibition
CCOc1ccccc1-c1noc(CSc2nnc(-c3ccccc3)n2-c2cccc(C)c2)n1	inconclusive [inhibitor, partial curve]	–
Cc1nc(CNc2ncnc3ccc(-c4ccc5c(c4)OCO5)cc23)cs1	inconclusive [inhibitor, partial curve, poor fit]	–
Cc1cc(C)cc(NC(=O)CSc2oc(-c3ccco3)nc2S(=O)(=O)c2ccccc2)c1	inconclusive [inhibitor, partial curve, poor fit]	–
COc1ccc(NC(=O)c2coc(=O)c3ccccc23)cc1OC	–	inactive: -25.2%
Cc1ccc(NC(=O)c2c(C)oc3ncn(C)c(=O)c23)cc1F	inconclusive [inhibitor, single point]	–
CCOc1ccc(Nc2c(S(=O)(=O)c3ccc(C)cc3)cnc3cc(OC)c(OC)cc23)cc1	inconclusive [inhibitor, single point]	–
Oc1ccc(/C=C/c2nc(-c3ccccc3O)n(-c3ccccc3)n2)c(O)c1	inconclusive [inhibitor, single point]	–
Cc1ccc(-c2noc(-c3ccccc3NC(=O)C3CC(=O)N(c4cccc(C)c4)C3)n2)cc1 (centres undefined)	–	inactive: 4.17%
CC(=O)N[C@@H](CC(=O)O)C(=O)N[C@@H](CCC(=O)O)C(=O)N[C@H](C(=O)N[C@@H](CC(=O)O)C(=O)Nc1ccc2c(C)cc(=O)oc2c1)C(C)C	active: 20 µM	–
COc1cccc(CN2CCc3nc(Nc4ccc5c(c4)OCCO5)ncc3C2)c1OC	–	inactive: -20.2%
CN(C)C(=O)c1ccc(NC(=O)Cn2nc(-c3ccccc3)c3ccccc3c2=O)cc1	inconclusive [inhibitor, single point]	–
N#C/C(=C\c1ccc(O)c(O)c1)C(=O)NCCCc1ccccc1	inconclusive [inhibitor, partial curve, poor fit]	–
Cc1cccc(C)c1NC(=O)c1nc(S(C)(=O)=O)ncc1N(Cc1ccc(C(C)(C)C)cc1)Cc1ccco1	inconclusive [inhibitor, partial curve, poor fit]	–
CCOC(=O)c1cccc(NC(=O)c2ccc3c(c2)nnn3CC)c1	–	inactive: -19.7%
O=C(CCCCn1c(=O)[nH]c2ccsc2c1=O)N1CCN(c2cccc(C(F)(F)F)c2)CC1	inconclusive [inhibitor, single point]	–
Cc1ccccc1C(=O)Nc1cccc(OCc2cc(=O)n3c4c(sc3n2)CCCC4)c1	–	inactive: -5.65%
COc1cccc(CNS(=O)(=O)c2ccc3[nH]c4c(c3c2)CCCCC4)c1	inconclusive [inhibitor, partial curve]	–
COc1ccc2[nH]cc(CCNC(=O)Nc3ccccc3)c2c1	–	inactive: -6.29%
CCOC(=O)c1c(C)[nH]c(C)c1S(=O)(=O)N1CCCC(C(=O)Nc2ncccc2C)C1 (centres undefined)	inconclusive [inhibitor, single point]	–
COC(=O)c1sccc1S(=O)(=O)N(CC(=O)NCc1ccc(C)cc1)c1ccccc1	–	inactive: -1.08%
COc1ccc(C(=O)Nc2ccc(NC(=O)c3cccs3)cc2)cc1OC	active: 28.2 µM [activator]	–
Cc1ccc(NS(=O)(=O)c2ccc3nc(-c4ccccc4)[nH]c3c2)cc1Cl	inconclusive [inhibitor, single point]	–

Compound	Potency	activity change, negative = inhibition
COc1ccc(NS(=O)(=O)c2ccc3c(c2)CC(C)N3C(=O)C2CCC2)cc1OC (centres undefined)	–	inactive: -20.9%
CSc1nn(CC(=O)Nc2ccc(C)cc2C)c(N)c1S(=O)(=O)c1ccc(Cl)cc1	inconclusive [inhibitor, partial curve]	–
CC(=O)O[C@@H]1c2c3c(cc(O)c2C(=O)O[C@@H]1C)O[C@@]1(C)[C@@H](O)C[C@H]2C(C)(C)C(=O)C=C[C@]2(C)[C@@H]1C3	–	inactive: -6.54% [at 53.3 µM]
Cc1noc2ncnc(NCCc3ccccc3)c12	–	inactive: 3.54%
COc1ccc(N2CCN(C(=O)c3ccc4c(c3)CCN4S(=O)(=O)c3ccccc3)CC2)cc1	inconclusive [inhibitor, full curve]	–
NC(=O)c1ccc(I)c([N+](=O)[O-])c1	–	inactive: 0.957% [at 53.3 µM]
Cc1c(C(=O)N(C)Cc2ccccc2)sc2nc(-c3ccc(F)cc3)cn12	–	inconclusive: -32.1% [inhibitor]
O=C1NC(=O)C(c2cn3c4c(cccc24)CCC3)C1c1c[nH]c2ccccc12 (centres undefined)	–	inactive: -6.78%
Nc1nc(Cl)nc2c1ncn2[C@@H]1O[C@H](CO)C(O)[C@H]1O (some centres undefined)	–	inactive: -7.33% [at 53.3 µM]
C[C@@H]1[C@H]2[C@H](O[C@@H]3O[C@H](CO)[C@@H](O)[C@H](O)[C@H]3O)OC=C(C(=O)O)[C@H]2C[C@@H]1O	–	inactive: -8.45% [at 53.3 µM]
O=C(CCc1ccccc1)N(Cc1cccnc1)c1nc2ccc(F)cc2s1	–	inconclusive: -31.8% [inhibitor]
Cc1ccccc1Cn1nnc2c(=O)[nH]c(C3CCCN(C(=O)c4ccc(C(C)(C)C)cc4)C3)nc21 (centres undefined)	inconclusive [inhibitor, partial curve]	–
C[C@@H]1C[C@@H](O)[C@@]23CO[C@]2(CO)C[C@@H](O)CC3[C@@]12CC(c1ccoc1)OC2=O (some centres undefined)	–	inactive: -2.44% [at 53.3 µM]
COc1ccc(C(=O)Nc2cccc(OCc3cc(=O)n4c5c(sc4n3)CCCC5)c2)cc1OC	–	inactive: 1.89%
COc1ccc(-c2nc(-c3cc(C(F)(F)F)cc(C(F)(F)F)c3)n(Cc3ccc(C(N)=O)cc3)c2-c2ccc(OC)cc2)cc1	inconclusive [inhibitor, single point]	–
CC(=O)c1ccc(N2CCN(S(=O)(=O)c3cc4[nH]c(=O)c(=O)[nH]c4cc3C)CC2)cc1	inconclusive [inhibitor, single point]	–
CCc1nnc(NC(=O)c2cc(=O)c3cc(C)ccc3o2)s1	inconclusive [inhibitor, single point]	–
Cc1ccc(S(=O)(=O)CC(=O)Nc2nc3c(C)cc(C)cc3s2)cc1	inconclusive [inhibitor, partial curve, poor fit]	–
Cc1ccc(NC(=O)c2cc(S(=O)(=O)N3CCC4(CC3)OCCO4)ccc2F)cc1Cl	inconclusive [inhibitor, partial curve]	–
CCCCN(CCCNC(=O)c1cc(Nc2cccc(SC)c2)nc2ccccc12)Cc1ccccc1	inconclusive [inhibitor, single point]	–
CCCN1CCN(CCCNC(=O)c2cc3c(=O)n(CC)c4ccccc4c3s2)CC1	inconclusive [inhibitor, partial curve]	–
O=Nc1ccc2oc(=O)ccc2c1	active: 1 µM	–

Compound	Potency	activity change, negative = inhibition
Cc1ccc(-n2c(SCc3ccccc3F)nc3[nH]ncc3c2=O)cc1Cl	inconclusive [inhibitor, partial curve]	–
COCCc1ccccn1	–	inactive: 2.12% [at 53.3 µM]
CCc1ccc(C2C(C(=O)Nc3ccccc3OC)=C(C)Nc3c(C(=O)Nc4ccc(C)cc4)cnn32)cc1 (centres undefined)	inconclusive [inhibitor, partial curve, poor fit]	–
Cc1ccc(OCCSc2nc(-c3ccccc3C)nc3cc(=O)[nH]n23)cc1Cl	inconclusive [inhibitor, full curve, poor fit]	–
CC(C)(C)OC(=O)N1CCC(c2c(C(=O)NCc3cccs3)cnn2-c2cccc(F)c2)CC1	inconclusive [inhibitor, partial curve]	–
COc1ccc(N2CCN(S(=O)(=O)c3ccc(F)c(C(=O)Nc4ccccc4Cl)c3)CC2)cc1	–	inactive: 7.37%
CC(C)(C)c1ccc(S(=O)(=O)/C=C/C#N)cc1	inconclusive [inhibitor, partial curve, poor fit]	–
COc1cccc(Cn2nc(SC)c(S(=O)(=O)c3ccccc3)c2N(C(C)=O)C(C)=O)c1	inconclusive [inhibitor, partial curve]	–
COc1cc(-c2nc3sccn3c2Nc2c(C)cccc2C)ccc1O	active: 15.8 µM	–
Cn1ncc2c(N3CCN(c4ccc(F)cc4)CC3)ncnc21	inconclusive [inhibitor, partial curve, poor fit]	–
C[C@@H](O[C@H]1OCCN(Cc2n[nH]c(=O)[nH]2)[C@H]1c1ccc(F)cc1)c1cc(C(F)(F)F)cc(C(F)(F)F)c1	inconclusive [inhibitor, single point]	–
CCOC(=O)C1CCCN(C(=O)c2ccc3c(c2)sc2nc(-c4cccc(OC)c4)cn23)C1 (centres undefined)	inconclusive [inhibitor, single point]	–
CCOc1ccccc1CNC(=O)c1cc2c(=O)n(Cc3cccnc3)ccc2nc1C	inconclusive [activator, partial curve, poor fit]	–
CCCCN(C)CC(O)Cn1cc(/C=C/C(=O)c2ccc(Br)cc2)c2ccccc21 (centres undefined)	–	inactive: -10.6%
Cc1cccc(Cn2c(-c3ccccc3)nc3ccccc32)c1	–	inactive: -18.6%
Cc1ccc(-c2cnc(C3CC3)o2)cc1S(=O)(=O)Nc1cccc(C)c1C	inconclusive [inhibitor, single point]	–
O=C(NC1CCN(Cc2ccccc2)CC1)c1ccc(Cn2c(=O)c3ccccc3n(Cc3ccc(Cl)cc3)c2=O)cc1	–	inactive: 0.13%
COc1ccc(NC(=O)Nc2cc(-c3cn4cccnc4n3)ccc2C)cc1	–	inactive: -2.92%
O=C(O)c1cc(=O)c2c(Cl)cc(Cl)cc2[nH]1	inconclusive [inhibitor, single point]	–
CCOc1cc(C(=O)Nc2cc3c(cc2N2CCCC2)n(C)c(=O)c(=O)n3C)cc(OCC)c1OCC	inconclusive [inhibitor, single point]	–
